In the supplement of paper PMC3334620:
Whole data set: some 33,000 sequences, median “E-score (-0.5 to 0.5)” near -0.011, cut for the highest 2% near 0.28. This is one part of the list.

Each sequence was assayed against T1, Gcr1 (UniProt P07261) (assay: PBM E-score (8-mer binding enrichment) (E-score (-0.5 to 0.5)); higher = stronger / more preferred TF binding; most listed sequences are background and not binding sites). Details: protein concentration: 100 nM; construct: GST-full length.
T1 sequence: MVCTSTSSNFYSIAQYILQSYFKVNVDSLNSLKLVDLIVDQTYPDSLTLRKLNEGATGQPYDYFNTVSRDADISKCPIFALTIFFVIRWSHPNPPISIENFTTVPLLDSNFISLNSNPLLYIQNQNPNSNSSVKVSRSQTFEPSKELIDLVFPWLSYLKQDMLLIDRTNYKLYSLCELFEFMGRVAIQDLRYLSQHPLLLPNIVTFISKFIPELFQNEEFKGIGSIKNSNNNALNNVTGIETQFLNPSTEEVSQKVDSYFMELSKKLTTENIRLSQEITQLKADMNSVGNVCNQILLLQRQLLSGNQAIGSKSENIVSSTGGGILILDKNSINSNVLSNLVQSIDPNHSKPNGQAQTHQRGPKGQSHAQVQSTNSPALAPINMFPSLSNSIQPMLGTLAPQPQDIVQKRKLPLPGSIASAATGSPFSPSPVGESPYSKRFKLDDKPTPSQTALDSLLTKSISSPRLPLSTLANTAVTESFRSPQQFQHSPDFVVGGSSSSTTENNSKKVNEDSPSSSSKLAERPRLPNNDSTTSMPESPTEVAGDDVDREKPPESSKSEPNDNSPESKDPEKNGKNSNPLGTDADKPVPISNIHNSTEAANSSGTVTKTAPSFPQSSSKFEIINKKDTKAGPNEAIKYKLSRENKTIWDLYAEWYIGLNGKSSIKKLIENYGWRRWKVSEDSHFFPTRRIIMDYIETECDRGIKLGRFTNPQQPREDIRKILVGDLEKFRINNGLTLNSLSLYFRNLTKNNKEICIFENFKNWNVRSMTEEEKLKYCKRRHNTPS
In short: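 E-scores (a modified Wilcoxon-Mann-Whitney statistic) were assigned by the Universal PBM Analysis Suite to every ungapped eight-base word pooled with its reverse complement. The input came from universal all-10-mer Agilent arrays made double-stranded by primer extension and probed with GST-tagged yeast transcription factors at about 100-200 nM. Fluorescent anti-GST detected bound protein, and masliner normalised the scans.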

Sequence	PBM E-score
CTGCCAAG	0.0411
AGAAAAAG	0.0881
GCGGGGAA	0.0569
AGTTAAGG	-0.16
AGTCTGAG	0.00427
ATCGCGGG	-0.0646
TAGGAATA	-0.114
ACTGCTCG	-0.0276
CTATTTAA	0.309
ACATAGCA	-0.0972
GTCTTTAA	0.0169
CCGTATAG	0.0155
CCAGTACG	0.0637
AGACATAA	0.0136
GCAGAAGA	0.0794
ATTTTATG	0.0886
CTACGTGC	0.0162
CTAGCGAC	0.0972
AATCCCAG	0.156
GTGCCCTA	-0.0516
GTCGCTTA	-0.135
TATCGGAA	0.195
AGTCCATC	-0.0325
GCAGTATA	-0.0897
TCGGCTCA	-0.242

Sequence	PBM E-score
GCCATGGA	-0.0314
GAGTACGA	0.0845
ACCTGGCT	0.0813
AACATGAC	0.0559
CGTCGCGA	-0.0117
GTGGACCA	-0.141
CAAGAAGG	0.203
AATGTTCA	0.194
GTCCGTGA	-0.132
CGTCAAGC	-0.061
AGACTGAT	-0.157
GGTCGGTA	-0.2
CGGGGGCC	0.0873
CACTCTGC	-0.173
GATGCACC	-0.0599
AGGACTAG	0.0816
ACTGCTTC	-0.191
CTAACCAC	-0.0645
GATTGCCC	-0.148
CGTTTGTC	-0.062
CTCAAAAC	0.014
CGTCCTGA	0.109
CCCTCGTC	-0.193
CAAACCTC	-0.221
CAGTTTAG	-0.0382

Sequence	PBM E-score
CGGGATGA	-0.188
ACAGCTTC	0.345
GTCTTACA	-0.214
GTAGGGAA	-0.109
GTGGCTGA	0.0603
GTCTCAAA	0.0295
GATTCACA	0.0985
AAAACCTG	-0.0358
GAATCTTA	0.143
ATAAGTGC	0.0635
CAAAACCA	0.0676
GATGAGTA	-0.00303
CAATCTGC	-0.0428
ATTCCGGC	0.191
CAAACACC	0.0607
CTATTATC	0.124
CCTGCCCC	-0.103
CCACTTAG	0.125
AACGCTCA	-0.0634
GACTCAAA	0.0253
CTCTAAGA	-0.00019
ACAACATA	0.0664
AATCAGCA	0.0527
GACGACCA	0.0626
CCTTCTGC	-0.132

Sequence	PBM E-score
TAGCTCGA	0.187
AATTTGTA	0.0965
CTGATGGC	-0.068
ATTGTTAG	0.156
GTATTCTA	0.123
AGGAAACA	0.0646
AGGATAAA	0.105
AATTCGCG	-0.00914
ACCAACGC	0.00771
TCAAAAGA	-0.013
GCAGAACC	0.0689
CAAATTCG	0.176
ATAGTTCC	-0.104
AACTAACT	-0.134
GCCGGTAA	0.0785
CCGGCCTC	-0.103
CATCTCGA	-0.0496
ACCTGCGA	-0.117
CAAATAGG	0.168
GGCATCAA	0.0535
GAACTGTA	-0.248
CTGTCAAC	-0.0693
CTGCTCAC	-0.0783
AGACTTGG	-0.0976
ACACGACC	-0.177

Sequence	PBM E-score
GTAGTGCA	-0.243
CCATCACG	-0.132
CAGTGATA	0.0897
CATCCTCA	0.168
AATTCCAG	0.274
AATTTAAG	0.18
GTATACAA	0.0979
GCGCATCC	0.331
AAGAGAGA	0.0367
GCCGGTAC	-0.114
ATTTCAAG	-0.0053
GGCAGTAC	-0.15
CCATTGGG	-0.0786
GTACGGGA	0.182
AATCTCAC	-0.0394
ACATGTCC	-0.057
CAGTACAA	0.0134
AAAAGCTT	-0.057
CATTCCCG	0.17
ATTCACTC	0.0286
AAAACCAA	0.0821
ACTGTTCT	-0.255
ATGAATTA	0.16
CCTACGTC	-0.0143
CATTAACC	0.0824

Sequence	PBM E-score
ATCAGTCG	0.0288
AAAGGCCG	-0.147
GTGTCAAA	0.064
ACGAGACA	-0.115
ATCTATGG	-0.0486
AATGGGTG	0.133
ATACTTGG	-0.0135
GGGGAGTA	-0.115
ACGCCCTC	-0.2
CGAAGGTC	-0.186
ATCGGGGG	-0.0694
ATTGGCTC	0.00258
CGTTGCGC	0.0871
GACAAAAA	0.197
GAATACAA	0.111
GCGAAAGA	-0.211
AGCGAAAT	-0.0598
AACGGTAC	-0.156
TGAGTCAA	0.0503
AGCCAGCA	-0.0416
CTACTTTA	0.0783
CTCGTGTC	0.0176
GCATTCGC	-0.0396
AATGATCA	0.0586
CCGCCCGG	-0.028

Sequence	PBM E-score
GAGCAGTA	0.0264
CATCTATA	0.122
AATTATGC	0.0621
GCCTCAGC	-0.158
AATTAGGT	0.0846
CGGACGTA	-0.119
CCGCCGAC	-0.06
ATCGAATC	0.0186
GCAAATGC	-0.0704
ACTAGGAA	-0.0866
ATCTCCCG	-0.0408
CGTTAGTC	-0.1
ATTAAGCC	0.0811
CTCTGAAA	0.162
AGCGACCA	0.257
CAGTTCTA	-0.0976
CTCTACAG	-0.0206
GTTCACGA	-0.123
AAGATTCT	0.264
GGATGTAC	-0.0621
AAACGCGG	0.0452
ATAGCTAA	-0.0177
